Positions count from the first letter of the chain named. The list shows a part of the results.
T1: RBFOX1 RRM (Homo sapiens, UniProt Q9NWB1 109-208)
T1 sequence: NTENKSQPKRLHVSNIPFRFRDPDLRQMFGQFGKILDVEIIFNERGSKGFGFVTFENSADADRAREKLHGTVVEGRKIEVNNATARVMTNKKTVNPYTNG

B1: GCAUACC (DNA:RNA)
RNA: GGGAGACCGGAAUUCAGAUUGUCCGCAUACCUUAAAUCCCGUCGUAGCCACCA
DNA 1: CAATCTGAATTCCGGTCTCCC
DNA 2: TGGTGGCTACGACGGGATT
B2: UACAAAU (DNA:RNA)
RNA: B1 RNA with G25U, C26A, A27C, U28A, C30A, C31U
DNA 1: CAATCTGAATTCCGGTCTCCC
DNA 2: TGGTGGCTACGACGGGATT
B3: GUUAUAA (DNA:RNA)
RNA: B1 RNA with C26U, A27U, U28A, A29U, C30A, C31A
DNA 1: CAATCTGAATTCCGGTCTCCC
DNA 2: TGGTGGCTACGACGGGATT
B4: AGGAUAG (DNA:RNA)
RNA: GGGAGACCGGAAUUCAGAUUGUCCAGGAUAGUUAAAUCCCGUCGUAGCCACCA
DNA 1: CAATCTGAATTCCGGTCTCCC
DNA 2: TGGTGGCTACGACGGGATT
B5: GCACACG (DNA:RNA)
RNA: B1 RNA with U28C, C31G
DNA 1: CAATCTGAATTCCGGTCTCCC
DNA 2: TGGTGGCTACGACGGGATT
B6: CAUCUCU (DNA:RNA)
RNA: B4 RNA with A25C, G26A, G27U, A28C, A30C, G31U
DNA 1: CAATCTGAATTCCGGTCTCCC
DNA 2: TGGTGGCTACGACGGGATT
B7: GGGUUAU (DNA:RNA)
RNA: B4 RNA with A25G, A28U, G31U
DNA 1: CAATCTGAATTCCGGTCTCCC
DNA 2: TGGTGGCTACGACGGGATT
B8: CAAUCCC (DNA:RNA)
RNA: B1 RNA with G25C, C26A, A29C
DNA 1: CAATCTGAATTCCGGTCTCCC
DNA 2: TGGTGGCTACGACGGGATT
B9: CAUCCUU (DNA:RNA)
RNA: GGGAGACCGGAAUUCAGAUUGUCCCAUCCUUUUAAAUCCCGUCGUAGCCACCA
DNA 1: CAATCTGAATTCCGGTCTCCC
DNA 2: TGGTGGCTACGACGGGATT
B10: CUGGCAU (DNA:RNA)
RNA: B9 RNA with A26U, U27G, C28G, U30A
DNA 1: CAATCTGAATTCCGGTCTCCC
DNA 2: TGGTGGCTACGACGGGATT
B11: GCAGUCA (DNA:RNA)
RNA: B1 RNA with U28G, A29U, C31A
DNA 1: CAATCTGAATTCCGGTCTCCC
DNA 2: TGGTGGCTACGACGGGATT
B12: AGUGAGU (DNA:RNA)
RNA: B4 RNA with G27U, A28G, U29A, A30G, G31U
DNA 1: CAATCTGAATTCCGGTCTCCC
DNA 2: TGGTGGCTACGACGGGATT
B13: GUGGUUG (DNA:RNA)
RNA: B4 RNA with A25G, G26U, A28G, A30U
DNA 1: CAATCTGAATTCCGGTCTCCC
DNA 2: TGGTGGCTACGACGGGATT
B14: AUGCUCC (DNA:RNA)
RNA: B4 RNA with G26U, A28C, A30C, G31C
DNA 1: CAATCTGAATTCCGGTCTCCC
DNA 2: TGGTGGCTACGACGGGATT
B15: GUGGGUU (DNA:RNA)
RNA: B9 RNA with C25G, A26U, U27G, C28G, C29G
DNA 1: CAATCTGAATTCCGGTCTCCC
DNA 2: TGGTGGCTACGACGGGATT
B16: CCCGGCA (DNA:RNA)
RNA: B1 RNA with G25C, A27C, U28G, A29G, C31A
DNA 1: CAATCTGAATTCCGGTCTCCC
DNA 2: TGGTGGCTACGACGGGATT
B17: CGCUCCC (DNA:RNA)
RNA: B1 RNA with G25C, C26G, A27C, A29C
DNA 1: CAATCTGAATTCCGGTCTCCC
DNA 2: TGGTGGCTACGACGGGATT
B18: GCACCAU (DNA:RNA)
RNA: B9 RNA with C25G, A26C, U27A, U30A
DNA 1: CAATCTGAATTCCGGTCTCCC
DNA 2: TGGTGGCTACGACGGGATT
B19: GGGUAAA (DNA:RNA)
RNA: B4 RNA with A25G, A28U, U29A, G31A
DNA 1: CAATCTGAATTCCGGTCTCCC
DNA 2: TGGTGGCTACGACGGGATT
B20: UCAUGUC (DNA:RNA)
RNA: B1 RNA with G25U, A29G, C30U
DNA 1: CAATCTGAATTCCGGTCTCCC
DNA 2: TGGTGGCTACGACGGGATT
B21: CGCAACA (DNA:RNA)
RNA: B4 RNA with A25C, G27C, U29A, A30C, G31A
DNA 1: CAATCTGAATTCCGGTCTCCC
DNA 2: TGGTGGCTACGACGGGATT
B22: ACCUGGG (DNA:RNA)
RNA: B4 RNA with G26C, G27C, A28U, U29G, A30G
DNA 1: CAATCTGAATTCCGGTCTCCC
DNA 2: TGGTGGCTACGACGGGATT
B23: CGCCGGG (DNA:RNA)
RNA: B4 RNA with A25C, G27C, A28C, U29G, A30G
DNA 1: CAATCTGAATTCCGGTCTCCC
DNA 2: TGGTGGCTACGACGGGATT
B24: GCCGGUA (DNA:RNA)
RNA: B1 RNA with A27C, U28G, A29G, C30U, C31A
DNA 1: CAATCTGAATTCCGGTCTCCC
DNA 2: TGGTGGCTACGACGGGATT
B25: GGCUAAG (DNA:RNA)
RNA: B4 RNA with A25G, G27C, A28U, U29A
DNA 1: CAATCTGAATTCCGGTCTCCC
DNA 2: TGGTGGCTACGACGGGATT
B26: GGGCUGG (DNA:RNA)
RNA: B4 RNA with A25G, A28C, A30G
DNA 1: CAATCTGAATTCCGGTCTCCC
DNA 2: TGGTGGCTACGACGGGATT
B27: GGGGAUC (DNA:RNA)
RNA: B1 RNA with C26G, A27G, U28G, C30U
DNA 1: CAATCTGAATTCCGGTCTCCC
DNA 2: TGGTGGCTACGACGGGATT
B28: GCGAUCU (DNA:RNA)
RNA: B4 RNA with A25G, G26C, A30C, G31U
DNA 1: CAATCTGAATTCCGGTCTCCC
DNA 2: TGGTGGCTACGACGGGATT
B29: GCGUUGC (DNA:RNA)
RNA: B1 RNA with A27G, A29U, C30G
DNA 1: CAATCTGAATTCCGGTCTCCC
DNA 2: TGGTGGCTACGACGGGATT
B30: GUUCCCU (DNA:RNA)
RNA: B9 RNA with C25G, A26U, U30C
DNA 1: CAATCTGAATTCCGGTCTCCC
DNA 2: TGGTGGCTACGACGGGATT
B31: CGUGUAA (DNA:RNA)
RNA: B4 RNA with A25C, G27U, A28G, G31A
DNA 1: CAATCTGAATTCCGGTCTCCC
DNA 2: TGGTGGCTACGACGGGATT

Each binder was assayed against T1, RBFOX1 RRM (assay: EMSA; HiTS-Eq, 1 nM pool, 10 min; buffer printed only for the single-RNA assays: 10 mM Tris pH 7.5, 150 mM NaCl, 3.4 mM EDTA, 0.001% NP-40, 30 C). Conditions: tags: His6 N-terminal (pET28a); label: 5' 32P.
Outline: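 These values rest on relative association constants, computed from read-count changes of each RNA species versus the control reaction and normalised to the cognate motif. Reads came from free RNA recovered by 8% native PAGE after purified RbFox RRM (wild type or mutant) at increasing concentrations was equilibrated for 10 min in 50 µL with 1 nM of a 5′-radiolabelled pool with 7 randomized nucleotides and DNA-annealed flanks.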
For B1, the binding signal was 0.0084 KA relative to UGCAUGU. With B2 the binding signal was 0.000125 KA relative to UGCAUGU. For B3, the binding signal was 0.00374 KA relative to UGCAUGU. With B4 the binding signal was 0.0183 KA relative to UGCAUGU. With B5 the binding signal was 0.00843 KA relative to UGCAUGU. B6 was tested, and the binding signal was 0.0058 KA relative to UGCAUGU. In the case of B7, the binding signal is reported as 0.0147 KA relative to UGCAUGU. In the case of B8, the binding signal is reported as 0.00091 KA relative to UGCAUGU. B9 was tested, and the binding signal was 0.00199 KA relative to UGCAUGU. With B10 the binding signal was 0.0184 KA relative to UGCAUGU. For B11, the binding signal was 0.00545 KA relative to UGCAUGU. With B12 the binding signal was 0.0134 KA relative to UGCAUGU. For B13, the binding signal was 0.0321 KA relative to UGCAUGU. In the case of B14, the binding signal is reported as 0.00856 KA relative to UGCAUGU. B15 was tested, and the binding signal was 0.0265 KA relative to UGCAUGU. With B16 the binding signal was 0.0217 KA relative to UGCAUGU. For B17, the binding signal was 0.00727 KA relative to UGCAUGU. In the case of B18, the binding signal is reported as 0.00704 KA relative to UGCAUGU. With B19 the binding signal was 0.00803 KA relative to UGCAUGU. For B20, the binding signal was 0.00656 KA relative to UGCAUGU. For B21, the binding signal was 0.00427 KA relative to UGCAUGU. With B22 the binding signal was 0.00715 KA relative to UGCAUGU. In the case of B23, the binding signal is reported as 0.00987 KA relative to UGCAUGU. With B24 the binding signal was 0.0132 KA relative to UGCAUGU. For B25, the binding signal was 0.0134 KA relative to UGCAUGU. For B26, the binding signal was 0.0301 KA relative to UGCAUGU. With B27 the binding signal was 0.0348 KA relative to UGCAUGU. With B28 the binding signal was 0.014 KA relative to UGCAUGU. For B29, the binding signal was 0.0184 KA relative to UGCAUGU. B30 was tested, and the binding signal was 0.00682 KA relative to UGCAUGU. B31 was tested, and the binding signal was 0.00426 KA relative to UGCAUGU.

Source: article PMC9911399, “Two distinct binding modes provide the RNA-binding protein RbFox with extraordinary sequence specificity”
